In the supplement of paper PMC9446081 one finds relative growth data, which are given here for 37 molecules.

Out of some 39,000 compounds screened, about 220 (0.56%) showed activity. The list shows a part of the results.
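Further: static incubation at 37 °C against the wild-type strain, values averaged over two biological replicates.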

This assay concerns Escherichia coli K-12 BW25113. The assay is described as follows: relative growth (OD600 normalised to plate interquartile mean) (fraction); higher = less growth inhibition, active = 0.2 or less. Particulars: 50 µM; LB; incubation time: overnight (16-24 h).
Take `C[C@H]1CN([C@@H](C)CO)C(=O)Cc2cc(NS(=O)(=O)c3ccc(Cl)cc3)ccc2O[C@@H]1CN(C)C(=O)Nc1ccc(C(F)(F)F)cc1`: the relative growth is inactive: 0.972. For `CC(C)NC(=O)N(C)C[C@@H]1OCCCC[C@@H](C)Oc2ccc(NS(C)(=O)=O)cc2C(=O)N([C@H](C)CO)C[C@@H]1C`, the relative growth was inactive: 0.982. As to `C[C@@H]1CCCCO[C@@H](CN(C)C(=O)Nc2ccccc2)[C@H](C)CN([C@@H](C)CO)C(=O)c2cc(NC(=O)CCC(F)(F)F)ccc2O1`, the relative growth is inactive: 0.999. The same measure for `C[C@@H]1CCCCO[C@H](CN(C)C(=O)Cc2ccccc2)[C@@H](C)CN([C@@H](C)CO)C(=O)c2cc(NC(=O)Nc3ccc4c(c3)OCO4)ccc2O1`: inactive: 0.998. `C[C@H]1CN([C@@H](C)CO)S(=O)(=O)c2ccc(Br)cc2O[C@H]1CN(C)CC1CCOCC1`: the relative growth was inactive: 0.99. Turning to `N#Cc1ccc(C(c2ccc(C#N)cc2)n2cncn2)cc1`, the relative growth is inactive: 0.89.

Take `C[C@H]1C(=O)C(=O)[C@@H]2O[C@@H]2C1=O`: the relative growth was inactive: 0.576. Consider `C[C@H]1CCCCO[C@@H](CN(C)Cc2ccncc2)[C@@H](C)CN([C@@H](C)CO)C(=O)c2cc(NC(=O)Nc3ccc(F)cc3)ccc2O1`, for which the relative growth is inactive: 0.996. On to `COc1cccc(S(=O)(=O)N2C[C@H](O)COC[C@H]3O[C@H](CC(=O)NCCCN4CCOCC4)CC[C@@H]32)c1`, for which the relative growth was inactive: 1.02.

In the case of `Cc1noc(C)c1NC(=O)Nc1ccc2c(c1)C(=O)N([C@H](C)CO)C[C@@H](C)[C@H](CN(C)Cc1ccc(C(=O)O)cc1)OCCCC[C@@H](C)O2`, the relative growth was inactive: 1.04. The same measure for `O=C(C[C@@H]1CC=CC[C@@H](NC(=O)OCC2c3ccccc3-c3ccccc32)C(=O)OC[C@H](Cc2ccccc2)NC1=O)N[C@H](CO)Cc1ccccc1`: inactive: 0.957; for `C[C@H]1CCCCO[C@@H](CN(C)Cc2ccccc2)[C@@H](C)CN([C@@H](C)CO)C(=O)c2cc(NC(=O)Nc3ccc(F)cc3)ccc2O1`: inactive: 0.996. Take `C[C@H]1CCCCO[C@H](CN(C)Cc2ccc(C(F)(F)F)cc2)[C@@H](C)CN([C@@H](C)CO)C(=O)c2cc(N(C)C)ccc2O1`: the relative growth was inactive: 0.986. `CC(C)NC(=O)N(C)C[C@H]1Oc2ccc(NS(=O)(=O)c3cccs3)cc2C(=O)N([C@H](C)CO)C[C@H]1C`: the relative growth was inactive: 0.994.

`C[C@@H]1CCCCO[C@@H](CN(C)C(=O)Nc2ccc(C(F)(F)F)cc2)[C@H](C)CN([C@@H](C)CO)C(=O)c2cc(NC(=O)CCC(F)(F)F)ccc2O1`: the relative growth was inactive: 1.01.

Regarding `CN1CCN(C(=O)C[C@@H]2C=C[C@@H](NS(=O)(=O)c3cccc(F)c3)[C@H](CO)O2)CC1`, the relative growth is inactive: 0.988. For the molecule `C[C@@H]1CN([C@@H](C)CO)C(=O)Cc2cc(NC(=O)Nc3cccc4ccccc34)ccc2O[C@@H]1CN(C)CC1CCCCC1`, the relative growth was inactive: 1.02. For `C[C@@H]1CN([C@H](C)CO)C(=O)c2cccc(NC(=O)c3cnccn3)c2O[C@@H]1CN(C)C(=O)Nc1ccccc1` the value was inactive: 1.02; for `Cc1ccc(C(C)C)cc1O`, inactive: 1.01; for `C[C@H]1CCCCO[C@@H](CN(C)S(=O)(=O)c2cccs2)[C@@H](C)CN([C@@H](C)CO)C(=O)c2cc(NC(=O)C3CCCCC3)ccc2O1`, inactive: 1.01. `C[C@@H]1CN([C@@H](C)CO)C(=O)c2cc(NC(=O)CCCCCC(=O)Nc3ccccc3N)ccc2O[C@@H]1CN(C)S(=O)(=O)c1cn(C)cn1`: the relative growth was inactive: 1. The same measure for `CCCN(C)C[C@@H]1Oc2cc(C#Cc3ccc(OC)cc3)ccc2S(=O)(=O)N([C@@H](C)CO)C[C@@H]1C`: inactive: 0.995; for `C=CCN1C(=O)C[C@@H]2[C@@H]1CCN2c1cnccn1`: inactive: 1.

As for `COc1ccc(S(=O)(=O)Nc2ccc3c(c2)C(=O)N([C@@H](C)CO)C[C@H](C)[C@H](CN(C)C(=O)Nc2ccccc2)OCCCC[C@@H](C)O3)cc1`, the relative growth was inactive: 0.955. As to `O[C@H]1[C@H](O)[C@@H](O)[C@H](O)[C@H](O)[C@H]1O`, the relative growth was inactive: 0.995. On to `Cc1ccc(S(=O)(=O)N(C)C[C@H]2Oc3ccc(NC(=O)Nc4cccc5ccccc45)cc3C(=O)N([C@@H](C)CO)C[C@@H]2C)cc1`, for which the relative growth is inactive: 1.02. In the case of `C[C@@H]1CCCCO[C@H](CN(C)C(=O)CCC(F)(F)F)[C@@H](C)CN([C@H](C)CO)C(=O)c2cc(NC(=O)CCCCCC(=O)Nc3ccccc3N)ccc2O1`, the relative growth was inactive: 1.04.

Regarding `O=C1O[C@@H](c2ccccc2)[C@@H](c2ccccc2)N2[C@@H](c3ccc(O)cc3)[C@]3(C(=O)Nc4ccc(C#CC5=CCCCC5)cc43)[C@@H](C(=O)N3CCCCCCC3)[C@H]12`, the relative growth is inactive: 0.989. On to `C[C@@H]1CN([C@H](C)CO)C(=O)c2cc(NS(=O)(=O)c3ccc(Cl)cc3)ccc2O[C@@H](C)CCCCO[C@@H]1CN(C)C(=O)c1ccncc1`, for which the relative growth was inactive: 1. As for `C[C@@H]1CN([C@@H](C)CO)C(=O)c2cc(NC(=O)c3ccccc3)ccc2O[C@@H](C)CCCCO[C@@H]1CN(C)C(=O)CCC(F)(F)F`, the relative growth was inactive: 0.997. For `Cn1cnc(S(=O)(=O)N[C@H]2CC[C@H](CC(=O)N3CCN(c4ccccc4)CC3)O[C@H]2CO)c1`, the relative growth was inactive: 0.991. Consider `C[C@@H]1CN([C@H](C)CO)C(=O)c2cccc(NS(=O)(=O)c3ccc(F)cc3)c2O[C@@H]1CN(C)Cc1ccncc1`, for which the relative growth is inactive: 0.964. Consider `C[C@@H]1CCCCO[C@@H](CN(C)S(=O)(=O)c2ccccc2)[C@@H](C)CN([C@@H](C)CO)C(=O)c2cc(NC(=O)Nc3ccc(F)cc3)ccc2O1`, for which the relative growth is inactive: 1.02.

For `C[C@H](CO)N1C[C@H](C)[C@@H](CN(C)C(=O)Nc2ccc(F)cc2)OCCCC[C@H](C)Oc2ccc(NC(=O)CCC(F)(F)F)cc2C1=O`, the relative growth is inactive: 0.997.

`C[C@H]1CN([C@@H](C)CO)C(=O)Cc2cc(NS(=O)(=O)c3ccc(Cl)cc3)ccc2O[C@H]1CN(C)Cc1ccc(Cl)c(Cl)c1`: the relative growth is inactive: 1. `CCCCCc1c2c(cc(O)c1C(=O)O)OC(=O)c1c(cc(OC)cc1C(=O)CCCC)O2`: the relative growth is inactive: 0.697.

With `COc1ccc(S(=O)(=O)N[C@@H]2CC[C@@H](CC(=O)N3CCC(Cc4ccccc4)CC3)O[C@@H]2CO)cc1`, the relative growth was inactive: 0.979.
